Some of the results follow.

From the antibiotic and cytotoxicity screens of Wong et al. (2023) come the findings set out here.

This assay has as its system HSkMC (human skeletal muscle cells). Put plainly: cytotoxicity call (relative viability < 0.9). As to conditions: 10 µM.
Regarding `CO[C@H]1/C=C\O[C@@]2(C)Oc3c(C)c(O)c4c(O)c(c(/C=N/N=C/N5CCCCC5)c(O)c4c3C2=O)NC(=O)/C(C)=C\C=C/[C@H](C)[C@H](O)[C@@H](C)[C@@H](O)[C@@H](C)[C@H](OC(C)=O)[C@@H]1C`, the cytotoxicity call is “active”.

Consider `O=C(NC[C@@H](O)CO)[C@]1(CCS(=O)(=O)c2ccccc2)N=C(c2ccc(OCCCO)cc2)O[C@@H]1c1ccccc1`, for which the cytotoxicity call was “inactive”.

As for `FC(F)(F)CN1CCNCC1`, the cytotoxicity call was “inactive”.

As to `CCc1c(O)cc(O)c(C(=O)c2ccc(OCCN3CCOCC3)c(OC)c2)c1CC(=O)N(CCOC)CCOC`, the cytotoxicity call is “active”.

With `COCC#Cc1ccc2c(c1)O[C@@H](CN(C)S(=O)(=O)c1cccc(F)c1)[C@H](C)CN([C@@H](C)CO)S2(=O)=O`, the cytotoxicity call is “inactive”.

Take `N[C@@H](C(=O)O)C1=CCC=CC1`: the cytotoxicity call is “inactive”.

Turning to `C[C@@H]1CN([C@H](C)CO)C(=O)c2cc(NC(=O)NC3CCCCC3)ccc2O[C@@H]1CN(C)Cc1ccc(Oc2ccccc2)cc1`, the cytotoxicity call is “inactive”.

For the compound `CC(C)NC(=O)N(C)C[C@H]1Oc2ccc(NC(=O)C3CCCCC3)cc2C(=O)N([C@H](C)CO)C[C@H]1C`, the cytotoxicity call was “inactive”.

As to `COc1cc2c(cc1-c1coc3c4c(c(OC)cc3c1=O)OC(C)(C)CC4)OCO2`, the cytotoxicity call is “inactive”.

On to `O=C(C[C@@H]1C[C@@H]2c3cc(NC(=O)Nc4ccc(C(F)(F)F)cc4)ccc3O[C@@H]2[C@H](CO)O1)NCc1cc(F)ccc1F`, for which the cytotoxicity call is “inactive”.

Turning to `O=C(CCNNC(=O)c1ccncc1)NCc1ccccc1`, the cytotoxicity call is “inactive”.

For the compound `COc1ccc(NC(=O)N(C)C[C@H]2Oc3ncc(C#CC(C)C)cc3C(=O)N([C@@H](C)CO)C[C@@H]2C)cc1`, the cytotoxicity call is “inactive”.

As to `C[C@@H]1CN([C@@H](C)CO)C(=O)c2cc(NC(=O)C3CC3)ccc2O[C@H]1CN(C)S(=O)(=O)c1cccs1`, the cytotoxicity call was “inactive”.

`O=C(C[C@@H]1CC[C@@H]2[C@H](COC[C@@H](O)CN2S(=O)(=O)c2ccc(Cl)cc2)O1)NCCN1CCCC1`: the cytotoxicity call was “inactive”.

On to `C[C@H](CO)N1C[C@H](C)[C@H](CN(C)Cc2ccc(C(F)(F)F)cc2)Oc2ccc(NC(=O)CCC(F)(F)F)cc2C1=O`, for which the cytotoxicity call is “inactive”.

For `C[C@@H]1CN([C@@H](C)CO)C(=O)Cc2cc(NC(=O)Nc3cccc4ccccc34)ccc2O[C@H]1CN(C)C(=O)Nc1ccc2c(c1)OCO2`, the cytotoxicity call was “inactive”.

As to `C[C@H]1CCCCO[C@H](CN(C)C(=O)Nc2cccc3ccccc23)[C@@H](C)CN([C@@H](C)CO)C(=O)c2cc(NS(=O)(=O)c3cccs3)ccc2O1`, the cytotoxicity call is “inactive”.

Turning to `COc1cc(O)cc(OC)c1OC`, the cytotoxicity call was “inactive”.

Take `O=C(O)c1cccc(-n2cnnn2)c1`: the cytotoxicity call is “inactive”.

On to `O=C(O[C@@H]1O[C@@H]2COC(=O)c3cc(O)c(O)c(O)c3-c3c(cc(O)c(O)c3O)C(=O)O[C@H]2[C@H](OC(=O)c2cc(O)c(O)c(O)c2)[C@H]1OC(=O)c1cc(O)c(O)c(O)c1)c1cc(O)c(O)c(O)c1`, for which the cytotoxicity call is “active”.

Take `C[C@@H]1CN([C@H](C)CO)C(=O)c2cc(NS(=O)(=O)c3cn(C)cn3)ccc2O[C@@H]1CN(C)Cc1ccc(C(=O)O)cc1`: the cytotoxicity call was “inactive”.

For `COc1ccc(S(=O)(=O)N(C)C[C@@H]2Oc3ccc(NC(=O)Cn4cnnn4)cc3CC(=O)N([C@H](C)CO)C[C@@H]2C)cc1`, the cytotoxicity call was “inactive”.

As for `CC1(C)SC2C(NC(=O)C(C(=O)[O-])c3ccccc3)C(=O)N2C1C(=O)[O-].[Na+].[Na+]` (stereo not given), the cytotoxicity call was “inactive”.

Consider `Cc1cc(C)c2nnc(SCC(=O)O)n2n1`, for which the cytotoxicity call was “inactive”.

With `OC[C@H]1COCc2cnnn21`, the cytotoxicity call was “inactive”.

For the compound `O=C(NCCO)c1cc2ccccc2c(=O)s1`, the cytotoxicity call was “inactive”.

Regarding `COc1ccc(C#Cc2cnc3c(c2)C(=O)N([C@@H](C)CO)C[C@H](C)[C@@H](CN(C)CC2CCOCC2)O3)cc1`, the cytotoxicity call is “inactive”.

As for `COCCNc1cc(NC(=O)N2CCCc3cc(CN4CCN(C)CC4=O)c(C=O)nc32)ncc1C#N`, the cytotoxicity call was “inactive”.

Turning to `C[C@H](CO)N1C[C@H](C)[C@H](CN(C)C(=O)c2ccccc2)OCCCC[C@H](C)Oc2ccc(NC(=O)NC3CCCCC3)cc2C1=O`, the cytotoxicity call is “inactive”.

On to `CN1CCN(C(=O)C[C@H]2CC[C@H]3[C@@H](COC[C@@H](O)CN3C(=O)C3CCCC3)O2)CC1`, for which the cytotoxicity call is “inactive”.
